Molecular target: the molecule itself

B1: human TRAPP subunit Mum2, His-tagged (natural protein)
chain: not shown
  stoichiometry N: 2
